Data taken from the supplement of paper PMC8728848.
The other results are listed elsewhere or left out.

Key:
Experiment in all cases: glycan array binding signal (z-score within array); higher = stronger binding
Details in all cases: glycan notation: IUPAC condensed, linker removed
[1] = target: GlcNAc(b1-3)Gal(b1-3)GalNAc
In short: (§1)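 Glycan array binding is given as a within-array Z-score, which can be read as non-binding when negative. The arrays, 3228 of them, came from the Consortium for Functional Glycomics database and were retained only where the protein sequence was available. Z-scores were averaged across arrays of the same protein sequence at different concentrations or buffers and across linkers.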

GlcNAc(b1-3)Gal(b1-4)Glc = target: GlcNAc(b1-3)Gal(b1-4)Glc
In short: as §1

[2] = target: GlcNAc(b1-3)Gal(b1-4)GlcNAc
In short: as §1

[3] = target: GlcNAc(b1-3)Gal(b1-4)GlcNAc(b1-2)Man(a1-3)[GlcNAc(b1-3)Gal(b1-4)GlcNAc(b1-2)Man(a1-6)]Man(b1-4)GlcNAc(b1-4)GlcNAc
In short: as §1

[4] = target: GlcNAc(b1-3)Gal(b1-4)GlcNAc(b1-2)Man(a1-3)[GlcNAc(b1-3)Gal(b1-4)GlcNAc(b1-2)Man(a1-6)]Man(b1-4)GlcNAc(b1-4)[Fuc(a1-6)]GlcNAc
In short: as §1

[5] = target: GlcNAc(b1-3)Gal(b1-4)GlcNAc(b1-2)[GlcNAc(b1-3)Gal(b1-4)GlcNAc(b1-6)]Man(a1-6)[GlcNAc(b1-3)Gal(b1-4)GlcNAc(b1-2)Man(a1-3)]Man(b1-4)GlcNAc(b1-4)GlcNAc
In short: as §1

[6] = target: GlcNAc(b1-3)Gal(b1-4)GlcNAc(b1-3)Gal(b1-4)GlcNAc
In short: as §1

[7] = target: GlcNAc(b1-3)Gal(b1-4)GlcNAc(b1-3)Gal(b1-4)GlcNAc(b1-2)Man(a1-3)[GlcNAc(b1-3)Gal(b1-4)GlcNAc(b1-3)Gal(b1-4)GlcNAc(b1-2)Man(a1-6)]Man(b1-4)GlcNAc(b1-4)GlcNAc
In short: as §1

[8] = target: GlcNAc(b1-3)Gal(b1-4)GlcNAc(b1-3)Gal(b1-4)GlcNAc(b1-2)Man(a1-3)[GlcNAc(b1-3)Gal(b1-4)GlcNAc(b1-3)Gal(b1-4)GlcNAc(b1-2)Man(a1-6)]Man(b1-4)GlcNAc(b1-4)[Fuc(a1-6)]GlcNAc
In short: as §1

[9] = target: GlcNAc(b1-3)Gal(b1-4)GlcNAc(b1-3)Gal(b1-4)GlcNAc(b1-2)[GlcNAc(b1-3)Gal(b1-4)GlcNAc(b1-3)Gal(b1-4)GlcNAc(b1-6)]Man(a1-6)[GlcNAc(b1-3)Gal(b1-4)GlcNAc(b1-3)Gal(b1-4)GlcNAc(b1-2)Man(a1-3)]Man(b1-4)GlcNAc(b1-4)[Fuc(a1-6)]GlcNAc
In short: as §1

[10] = target: GlcNAc(b1-3)Gal(b1-4)GlcNAc(b1-3)Gal(b1-4)GlcNAc(b1-3)Gal(b1-4)GlcNAc(b1-2)Man(a1-3)[GlcNAc(b1-3)Gal(b1-4)GlcNAc(b1-3)Gal(b1-4)GlcNAc(b1-3)Gal(b1-4)GlcNAc(b1-2)Man(a1-6)]Man(b1-4)GlcNAc(b1-4)GlcNAc
In short: as §1

[11] = target: GlcNAc(b1-3)Gal(b1-4)GlcNAc(b1-3)Gal(b1-4)GlcNAc(b1-3)Gal(b1-4)GlcNAc(b1-2)Man(a1-3)[GlcNAc(b1-3)Gal(b1-4)GlcNAc(b1-3)Gal(b1-4)GlcNAc(b1-3)Gal(b1-4)GlcNAc(b1-2)Man(a1-6)]Man(b1-4)GlcNAc(b1-4)[Fuc(a1-6)]GlcNAc
In short: as §1

[12] = target: GlcNAc(b1-3)Gal(b1-4)GlcNAc(b1-3)Gal(b1-4)GlcNAc(b1-3)Gal(b1-4)GlcNAc(b1-2)[GlcNAc(b1-3)Gal(b1-4)GlcNAc(b1-3)Gal(b1-4)GlcNAc(b1-3)Gal(b1-4)GlcNAc(b1-6)]Man(a1-6)[GlcNAc(b1-3)Gal(b1-4)GlcNAc(b1-3)Gal(b1-4)GlcNAc(b1-3)Gal(b1-4)GlcNAc(b1-2)Man(a1-3)]Man(b1-4)GlcNAc(b1-4)[Fuc(a1-6)]GlcNAc
In short: as §1

[13] = target: GlcNAc(b1-3)Gal(b1-4)GlcNAc(b1-3)Gal(b1-4)GlcNAc(b1-3)Gal(b1-4)GlcNAc(b1-3)Gal(b1-4)GlcNAc(b1-2)Man(a1-3)[GlcNAc(b1-3)Gal(b1-4)GlcNAc(b1-3)Gal(b1-4)GlcNAc(b1-3)Gal(b1-4)GlcNAc(b1-3)Gal(b1-4)GlcNAc(b1-2)Man(a1-6)]Man(b1-4)GlcNAc(b1-4)GlcNAc
In short: as §1

[14] = target: GlcNAc(b1-3)Gal(b1-4)GlcNAc(b1-3)Gal(b1-4)GlcNAc(b1-3)Gal(b1-4)GlcNAc(b1-3)Gal(b1-4)GlcNAc(b1-2)Man(a1-3)[GlcNAc(b1-3)Gal(b1-4)GlcNAc(b1-3)Gal(b1-4)GlcNAc(b1-3)Gal(b1-4)GlcNAc(b1-3)Gal(b1-4)GlcNAc(b1-2)Man(a1-6)]Man(b1-4)GlcNAc(b1-4)[Fuc(a1-6)]GlcNAc
In short: as §1

[15] = target: GlcNAc(b1-3)Gal(b1-4)GlcNAc(b1-3)Gal(b1-4)GlcNAc(b1-3)Gal(b1-4)GlcNAc(b1-3)Gal(b1-4)GlcNAc(b1-2)[GlcNAc(b1-3)Gal(b1-4)GlcNAc(b1-3)Gal(b1-4)GlcNAc(b1-3)Gal(b1-4)GlcNAc(b1-3)Gal(b1-4)GlcNAc(b1-6)]Man(a1-6)[GlcNAc(b1-3)Gal(b1-4)GlcNAc(b1-3)Gal(b1-4)GlcNAc(b1-3)Gal(b1-4)GlcNAc(b1-3)Gal(b1-4)GlcNAc(b1-2)Man(a1-3)]Man(b1-4)GlcNAc(b1-4)[Fuc(a1-6)]GlcNAc
In short: as §1

[16] = target: GlcNAc(b1-3)Gal(b1-4)GlcNAc(b1-3)Gal(b1-4)GlcNAc(b1-3)GalNAc
In short: as §1

[17] = target: GlcNAc(b1-3)Gal(b1-4)GlcNAc(b1-3)GalNAc
In short: as §1

[18] = target: GlcNAc(b1-3)Gal(b1-4)GlcNAc(b1-3)[GlcNAc(b1-3)Gal(b1-4)GlcNAc(b1-3)]GalNAc
In short: as §1

[19] = target: GlcNAc(b1-3)Gal(b1-4)GlcNAc(b1-6)[Gal(b1-3)]GalNAc
In short: as §1

[20] = target: GlcNAc(b1-3)Gal(b1-4)GlcNAc(b1-6)[GlcNAc(b1-3)Gal(b1-3)]GalNAc
In short: as §1

[21] = target: GlcNAc(b1-3)Gal(b1-4)GlcNAc(b1-6)[GlcNAc(b1-3)]Gal(b1-4)GlcNAc
In short: as §1

GlcNAc(b1-3)GalNAc = target: GlcNAc(b1-3)GalNAc
In short: as §1

GlcNAc(b1-3)Man = target: GlcNAc(b1-3)Man
In short: as §1

[22] = target: GlcNAc(b1-3)[GlcNAc(b1-4)][GlcNAc(b1-6)]GlcNAc
In short: as §1

[23] = target: GlcNAc(b1-3)[GlcNAc(b1-6)]Gal(b1-4)GlcNAc
In short: as §1

[24] = target: GlcNAc(b1-3)[GlcNAc(b1-6)]GalNAc
In short: as §1

[25] = target: GlcNAc(b1-4)Gal(b1-4)GlcNAc
In short: as §1

GlcNAc(b1-4)GlcNAc = target: GlcNAc(b1-4)GlcNAc
In short: as §1

[26] = target: GlcNAc(b1-4)GlcNAc(b1-4)GlcNAc
In short: as §1

[27] = target: GlcNAc(b1-4)GlcNAc(b1-4)GlcNAc(b1-4)GlcNAc(b1-4)GlcNAc
In short: as §1

[28] = target: GlcNAc(b1-4)GlcNAc(b1-4)GlcNAc(b1-4)GlcNAc(b1-4)GlcNAc(b1-4)GlcNAc
In short: as §1

[29] = target: GlcNAc(b1-4)[GlcNAc(b1-6)]GalNAc
In short: as §1

[30] = target: GlcNAc(b1-6)Gal(b1-4)GlcNAc
In short: as §1

GlcNAc(b1-6)GalNAc = target: GlcNAc(b1-6)GalNAc
In short: as §1

[31] = target: GlcNAc6S(b1-3)Gal(b1-4)GlcNAc
In short: as §1

Kdn(a2-3)Gal(b1-3)GalNAc = target: Kdn(a2-3)Gal(b1-3)GalNAc
In short: as §1

B1: Epa1to9 (Candida glabrata) (protein)
chain: MGSSHHHHHHSSGLVPRGSHMTSSNDISLASKDPTTFPLGCSPDITTPKKGLSMELYSYDFRKKGSYPCWDAAYLDPNYPRTGYKSHRLLAKVDGVTGNINFYYHATKGCTPQLGHLPASYNYPKPLTMTNFTMLLYGYFRPKVTGFHTFTISADDLLFVNFGAGNAFDCCRRDSSADHFGNYQAYAIWGSKTAKDELTVHLDAGVYYPIRLFYNNRDYHGALSFTFKTESNENTVSDFSEYFFSLDDTEEGCPGLISYD
glycan array binding signal (z-score) [1]: -0.301 | glycan array binding signal (z-score) (GlcNAc(b1-3)Gal(b1-4)Glc): -0.338 | glycan array binding signal (z-score) [2]: -0.351 | glycan array binding signal (z-score) [3]: -0.345 | glycan array binding signal (z-score) [4]: -0.324 | glycan array binding signal (z-score) [5]: -0.302 | glycan array binding signal (z-score) [6]: -0.315 | glycan array binding signal (z-score) [7]: -0.338 | glycan array binding signal (z-score) [8]: -0.333 | glycan array binding signal (z-score) [9]: -0.328 | glycan array binding signal (z-score) [10]: -0.341 | glycan array binding signal (z-score) [11]: -0.33 | glycan array binding signal (z-score) [12]: -0.33 | glycan array binding signal (z-score) [13]: -0.342 | glycan array binding signal (z-score) [14]: -0.288 | glycan array binding signal (z-score) [15]: -0.297 | glycan array binding signal (z-score) [16]: -0.354 | glycan array binding signal (z-score) [17]: -0.347 | glycan array binding signal (z-score) [18]: -0.285 | glycan array binding signal (z-score) [19]: 0.585 | glycan array binding signal (z-score) [20]: -0.332 | glycan array binding signal (z-score) [21]: -0.35 | glycan array binding signal (z-score) (GlcNAc(b1-3)GalNAc): -0.352 | glycan array binding signal (z-score) (GlcNAc(b1-3)Man): -0.495 | glycan array binding signal (z-score) [22]: -0.347 | glycan array binding signal (z-score) [23]: -0.347 | glycan array binding signal (z-score) [24]: -0.342 | glycan array binding signal (z-score) [25]: -0.339 | glycan array binding signal (z-score) (GlcNAc(b1-4)GlcNAc): -0.419 | glycan array binding signal (z-score) [26]: -0.353 | glycan array binding signal (z-score) [27]: -0.346 | glycan array binding signal (z-score) [28]: -0.351 | glycan array binding signal (z-score) [29]: -0.353 | glycan array binding signal (z-score) [30]: 1.05 | glycan array binding signal (z-score) (GlcNAc(b1-6)GalNAc): -0.357 | glycan array binding signal (z-score) [31]: 0.811 | glycan array binding signal (z-score) (Kdn(a2-3)Gal(b1-3)GalNAc): -0.38
